Test results: PubChem BioAssay AID686978 (National Center for Advancing Translational Sciences (NCATS), 2013)
Out of some 420,000 compounds screened, about 64,000 (15%) were called active. Inconclusive results, whose numbers are uncertain, are shown with a selection of clear calls. Calls follow the shape of the dose curve; as a rule, active = well fitted inhibition curve with a large enough effect; inconclusive = small, poorly fitted or top-dose-only effect; inactive = flat fitted curve, though single readings scatter. No potency is given beside an inconclusive call; the fits are too rough.
% is scaled to controls: 0 for no effect and ±100 for the full control effect; potency is read from the fitted curve at half-maximal effect; tags tell the direction and shape of the fitted curve.

Experiment: qHTS for Inhibitors of human tyrosyl-DNA phosphodiesterase 1 (TDP1): qHTS in cells in absence of CPT; also: nearly all actives have a fitted effect of over 55% in size
Conditions: DT40 Tdp1-/- hTDP1 cells, no CPT, ATP luminescence, 48 h; activity change, negative = growth inhibition: at 46.2 µM (top of the series) unless noted
Procedure, shortened: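 Chicken DT40 Tdp1-/- cells complemented with human TDP1, screened without camptothecin (DMSO vehicle only), 400 cells/well. Compounds pin-transferred, cells incubated at 37 °C for at least 48 hr. Growth read as ATP-dependent luminescence (CellTiter-Glo, 30 min at RT).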
In the case of `COc1cccc(/C=C/c2ccncc2)c1OC`, the Potency is reported as active: 23.1 µM.
In the case of `Cc1oc(-c2ccccc2Cl)nc1CS(=O)CC(=O)N1CCN(c2cccc(C(F)(F)F)c2)CC1` (stereo unspecified), the Potency is reported as active: 13 µM.
In the case of `CC(=O)c1ccc(OC(C)C(=O)OCC(=O)NCCc2ccccc2)cc1` (stereo unspecified), the Potency is reported as “inactive”.
With `CCOc1cc(/C=N/Nc2nc(N3CCCCC3)nc(N3CCCCC3)n2)ccc1OC(=O)c1ccco1` the Potency was inconclusive [inhibitor, single point].
For `O=C(O)c1cccc(-n2cccc2/C=C2\SC(=O)N(Cc3ccccc3F)C2=O)c1`, the activity change, negative = growth inhibition was inconclusive: -34.2% [inhibitor].
For `CC1(C)CC(C)(c2ccc(O)cc2O)N(c2ccc3ccccc3c2)C(=S)N1` (stereo unspecified), the Potency was inconclusive [inhibitor, single point].
With `CC(C)C1=Nc2cccc3cccc(c23)N1` the Potency was inconclusive [inhibitor, single point].
In the case of `CCOc1ccc(Nc2nc(Cc3nnc(SCC(=O)N(CC)CC)n3C)cs2)cc1`, the Potency is reported as “inactive”.
For `CCOc1ccc(CCNC(=O)Nc2ccccc2C)cc1OCC`, the Potency was inconclusive [inhibitor, partial curve, poor fit].
For `CCn1c(SCC(=O)OC(C)C)nnc1-c1cccc(Cl)c1`, the Potency was “inactive”.
With `Clc1ccc(-n2nnnc2-c2cnc3ccccc3c2-c2ccccc2)cc1` the Potency was inconclusive [inhibitor, single point].
With `CCCC(C)(C)C(=O)N1CCC1(C)C(=O)NS(=O)(=O)c1cccc(Cl)c1` (stereo unspecified) the Potency was “inactive”.
In the case of `COC(=O)C1CCN(C(=O)Cc2ccc(OC)c(OC)c2)CC1`, the Potency is reported as inconclusive [inhibitor, single point].
For `CCOC(=O)N1CCN(C(=O)NC23CC4CC(CC(C4)C2)C3)CC1`, the Potency was “inactive”.
For `Cc1cc(OC(F)F)ccc1NC(=S)NC1CCCC1`, the Potency was “inactive”.
In the case of `Cc1cc(C)n(CC(=O)Nc2ccc([N+](=O)[O-])cc2)n1`, the Potency is reported as “inactive”.
With `Cc1noc(C)c1COc1ccc(C(=O)OCC(=O)Nc2c(C)n(C)n(-c3ccccc3)c2=O)cc1` the Potency was “inactive”.
For `O=C(N/N=C\c1ccc(-c2ccc([N+](=O)[O-])cc2)o1)c1ccc2c(c1)OCO2`, the Potency was “inactive”.
For `Cc1c(N=C2NC(=O)/C(=C/c3ccc(O)cc3)S2)c(=O)n(-c2ccccc2)n1C`, the Potency was inconclusive [inhibitor, single point].
With `O=C(CN1C(=O)/C(=C\c2ccc(C(F)(F)F)cc2)Sc2ccccc21)NCc1ccco1` the Potency was active: 13 µM.
In the case of `C=CCn1c(SCC(=O)NC(=O)NCC(C)C)nnc1C1CCCCC1`, the activity change, negative = growth inhibition is reported as inconclusive: -30.2% [inhibitor].
With `CC(C)CCNC(=O)C(c1ccncc1)N(Cc1cccs1)C(=O)Cn1nnc(-c2ccc(F)cc2)n1` (stereo unspecified) the Potency was inconclusive [inhibitor, single point].
For `CCc1cc(=O)oc2cc3occ(C)c3cc12`, the Potency was inconclusive [inhibitor, single point].
For `COc1ccc(NC(=O)c2cccnc2N2CCCCC2)cc1`, the Potency was inconclusive [inhibitor, single point].
With `CCCn1c(=O)c(C(=O)NCCc2ccc(Cl)cc2)c(O)c2ccccc21` the Potency was inconclusive [inhibitor, single point].
For `Cc1nn(Cc2ccccc2)c(C)c1NC(=O)c1ccc([N+](=O)[O-])cc1[N+](=O)[O-]`, the Potency was inconclusive [inhibitor, partial curve].
With `O=C(c1cc2ccccc2oc1=O)N(Cc1ccccc1)Cc1ccc2c(c1)OCO2` the Potency was inconclusive [inhibitor, single point].
With `Cc1cc(C)nc(N2CCCC(C(=O)Nc3ccc4c(c3)OCCO4)C2)n1` (stereo unspecified) the Potency was “inactive”.
For `Cc1nnc(NC(=O)c2csc3c2CCC(C)C3)s1` (stereo unspecified), the Potency was “inactive”.
With `COc1ccc(C(C)(O)c2nc(-c3cccc(F)c3)cs2)cc1` (stereo unspecified) the Potency was inconclusive [inhibitor, partial curve, poor fit].
For `O=C(Nc1cccc(F)c1)c1cc(S(=O)(=O)NCCC2=CCCCC2)ccc1F`, the Potency was inconclusive [inhibitor, single point].
In the case of `CC(=O)c1ccc(NC(=O)Nc2ccc(S(=O)(=O)N3CCCC3)cc2)cc1`, the Potency is reported as active: 14.6 µM.
For `Cc1nc2sccn2c(=O)c1S(=O)(=O)Nc1ccc(N2CCN(C)CC2)cc1`, the Potency was “inactive”.
For `CCc1nc(C)cn1S(=O)(=O)c1cc(OC)c(C)cc1C`, the Potency was inconclusive [inhibitor, partial curve].
In the case of `Fc1cccc(CN2CCN(Cc3nc(CCc4ccccc4)no3)CC2)c1`, the Potency is reported as inconclusive [inhibitor, single point].
In the case of `Cc1csc(=O)n1CC(=O)OCC(=O)Nc1ccc(Cl)cc1F`, the Potency is reported as “inactive”.
For `NC(=O)c1ccsc1NC(=O)c1ccc([N+](=O)[O-])o1`, the Potency was active: 8.2 µM.
In the case of `COC(=O)c1cnn(-c2ccc(F)cc2F)c1/C=N/NC(=S)NC(C)(C)C`, the Potency is reported as inconclusive [inhibitor, single point].
For `N/C(=N\OC(=O)c1ccc(Cl)cc1[N+](=O)[O-])c1ccccn1`, the Potency was inconclusive [inhibitor, partial curve, poor fit].
For `COc1ccncc1-c1ccccc1C1=CC(=O)CC(C)(C)C1=O`, the Potency was inconclusive [inhibitor, single point].
In the case of `COc1ccc(Oc2ncc3nc(-c4cc(F)cc(F)c4)c(=O)n(CCC#N)c3n2)cc1`, the Potency is reported as inconclusive [inhibitor, single point].
With `CC1(C(=O)OCC(=O)Nc2ccc(C(N)=O)cc2)CC1(Cl)Cl` (stereo unspecified) the Potency was “inactive”.
In the case of `COc1ccc(-c2nn3c(=O)cc(CN4CCN(C(=O)Nc5cc(C)ccc5C)CC4)nc3s2)cc1`, the activity change, negative = growth inhibition is reported as inconclusive: -24.7% [inhibitor].
With `COc1ccc(N(Cc2ccc(N(C)C)cc2)C(=O)c2ccc(S(C)(=O)=O)cc2)cc1` the Potency was inconclusive [inhibitor, single point].
With `CCOC(=O)[C@]12CCC=C1N(Cc1ccc(Cl)cc1Cl)C(=O)[C@H](CC(=O)NCCCN1CCCC1=O)C2` the Potency was inconclusive [inhibitor, single point].
In the case of `O=C1C=C(c2ccccc2)C[C@@H](c2ccc(Cl)cc2)C1`, the Potency is reported as inconclusive [inhibitor, single point].
In the case of `O=C(Nc1ccc([N+](=O)[O-])c(NC(=O)C2CCCO2)c1)C1CCCO1` (stereo unspecified), the Potency is reported as “inactive”.
For `CC(C)NC1=C(Cl)C(=O)c2ccccc2C1=O`, the Potency was inconclusive [inhibitor, single point].
In the case of `COC(=O)[C@H](C)[C@H]1C[C@]1(C)[C@H](NC(=O)OCc1ccccc1)c1ccccc1`, the Potency is reported as inconclusive [inhibitor, single point].
With `O=C(c1cccc2ccccc12)N1CCN(Cc2ccccc2F)CC1` the Potency was inconclusive [inhibitor, partial curve, poor fit].
In the case of `Cc1cc(-c2ccc(S(=O)(=O)Nc3cccc(C)c3C)s2)on1`, the Potency is reported as active: 2.59 µM.
For `O=C(NCC1CCCO1)c1cc2c([nH]c3ccccc32)c(-c2cccc(Br)c2)n1` (stereo unspecified), the Potency was active: 2.91 µM.
With `Cc1ccc(-c2ccnc3cc(C)nn23)cc1` the Potency was inconclusive [inhibitor, single point].
With `CCOC(=O)c1c(C)[nH]c(C)c1S(=O)(=O)N1CCC(C(=O)NCc2ccc(F)cc2)CC1` the Potency was “inactive”.
For `NC(Cc1ccc(C(F)(F)F)cc1)c1csc(NC(=O)Nc2ccccc2Oc2ccccc2)n1` (stereo unspecified), the Potency was active: 18.4 µM.
In the case of `O=C(Nc1ccc(C(F)(F)F)cc1)c1cnc(N2CCN(c3ccccn3)CC2)c2ccccc12`, the Potency is reported as inconclusive [inhibitor, partial curve, poor fit].
With `COC(=O)C12OCC34C(CC5C(C)=C(O)C(=O)CC5(C)C3C(O)C1O)OC(=O)C(OC(=O)C=C(C)C)C24` (stereo unspecified) the Potency was active: 0.146 µM.
With `CCn1c(O)c(N=NC(=O)c2cccc(S(=O)(=O)N3CCCCC3)c2)c2ccccc21` the Potency was active: 23.1 µM.
In the case of `Cc1cccc(N2CCN(C(=O)c3sc4nc5n(c(=O)c4c3C)CCC5)CC2C)c1` (stereo unspecified), the Potency is reported as active: 13 µM.
For `Clc1ccc(N2COC3c4cccc5cccc(c45)C32)cc1` (stereo unspecified), the Potency was inconclusive [inhibitor, single point].
With `CC(NC(=O)c1ccc(Cl)cc1)C(=O)NC1=NCCS1` (stereo unspecified) the Potency was “inactive”.
With `O=c1c2ccccc2sn1-c1cc(S(=O)(=O)N2CCOCC2)ccc1N1CCCC1` the Potency was active: 11.6 µM.
With `CCCCc1c(-c2cccc(Cl)c2)ncn1CCc1ccccc1OC` the Potency was active: 8.2 µM.
In the case of `COc1cccc(C(=O)NCCS(=O)(=O)NCc2ccccn2)c1`, the Potency is reported as “inactive”.
With `Cc1sc(-c2ccncc2)nc1OC(=O)c1ccc(F)cc1F` the Potency was “inactive”.
With `CCCNC(=O)C/C(C)=N/NC(=O)C(=O)Nc1ccccn1` the Potency was “inactive”.
In the case of `Cc1c(C(=O)NCc2cccc([N+](=O)[O-])c2)sc(=O)n1Cc1ccc(C(C)C)cc1`, the Potency is reported as inconclusive [inhibitor, single point].
In the case of `CN(C)S(=O)(=O)c1ccc(C(=O)NCC2CC2(Cl)Cl)cc1` (stereo unspecified), the Potency is reported as inconclusive [inhibitor, single point].
For `COc1ccc(S(=O)(=O)N2CCCCC2)cc1NC(=O)c1[nH]c(C)c(C(C)=O)c1C`, the Potency was inconclusive [inhibitor, single point].
For `O=c1[nH]c(SCc2ccccc2)nc2c1CCCC2`, the Potency was inconclusive [inhibitor, single point].
With `CCCCCc1c(C)nc(N2CCN(Cc3ccc4c(c3)OCO4)CC2)[nH]c1=O` the Potency was inconclusive [inhibitor, partial curve, poor fit].
